In PubChem BioAssay AID2060351 (Molecular Pharmacology Branch, DTP, NCI, 2025):
For part of its entries the source gives two or more results. This list holds those alone. The source may hold further records. Results that share an entry are repeated measurements in other runs, samples, wells, individuals or studies. Marks such as (2×) count equal records among those shown.

System: 521955-158-R7-J2-PDC spheroids, viability % test/control
Test: Anticancer human tumor 521955-158-R7-J2-PDC patient-derived pancreatic carcinoma cell line growth inhibition [TAK]
Conditions: stronger effect = lower value, spheroids with HUVEC and MSC
Excerpt: Combinatorial screen of targeted agents with TAK-243 and ipatasertib in multi-cell type tumor spheroids
A high-throughput screen of multi-cell type tumor spheroids was designed to identify active combinations of targeted small molecules and TAK-243 or ipatasertib. Complex spheroids include a stromal component modeled by human endothelial cells (HUVEC) and fibroblasts modeled by human mesenchymal stem cells (MSCs). The concentration ranges selected for each drug and investigational agent were based upon clinically achievable concentrations if the clinical Cmax of the agent was known.
Compounds. The drugs and investigational agents: TAK-243 (785004), ipatasertib (767898), everolimus (733504), selumetinib (741078), bortezomib (756655), trametinib (758246), ixazomib (758254), vemurafenib (761431), dabrafenib (764134), sapanisertib (764658), alpelisib (765974), and copanlisib (816437), were obtained from the National Cancer Institute (NCI) Developmental Therapeutics Program Chemical Repository. The FDA-approved anticancer drug set is available from the NCI Developmental Therapeutics Program. […] The stock solutions were prepared in dimethyl sulfoxide (DMSO, Sigma-Aldrich, St. Louis, MO, cat. D2650) at 800-fold the tested concentration and stored at -70 degrees C prior to their use. All drugs and investigational agents were tested over a range starting from a high concentration at or near the clinical Cmax and decreasing in half-log increments. If the clinical Cmax for an agent had not been determined, the highest concentration tested was 10 microM.
NCI60 Cell Culture. NCI60 cell lines were obtained from the NCI Developmental Therapeutics Program Tumor Repository. For each lot of cells, the Repository performed Applied Biosystems AmpFLSTR Identifiler testing with PCR amplification to confirm consistency with the published Identifier STR profile for each cell line. Cells were kept in continuous culture for no more than 20 passages. The optimal seeding densities for each of the cell lines at each time point assessed were determined prior to performing the concentration response studies. Briefly, the NCI60 human tumor lines were grown as monolayers in RPMI 1640 medium supplemented with 10% FBS and 2 mmol/L L-glutamine.
An additional 2 lines were from the NCI60 cell line panel including melanomas, MALME-3M and SK-MEL-2. Pooled donor human umbilical vein endothelial cells (HUVEC, Lonza, cat. CC-2519) and human mesenchymal stem cells (hMSC, Lonza, cat. PT-2501) were purchased from Lonza (Walkersville, MD). […]
For the pre-screen, cell seeding densities were determined from a titration spanning the range from 5,000 to 313 cells per well. […]
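Note: spheroids exposed to compound for 7 days before readout; 100% = DMSO vehicle control wells.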

In the case of `CC(C)NCC(C(=O)N1CCN(c2ncnc3c2C(C)CC3O)CC1)c1ccc(Cl)cc1` (centres undefined), the viability, T/C (compound alone 0.3 µM) is reported as 92.9, 81.5, 102, 112, 105, 66.1, 72.5, 87.5, 88.8, 93.8%, the viability, T/C (compound alone 0.949 µM) is reported as 85.7, 115 (2×), 97.2, 96.3, 89.8, 73.7, 121, 110, 89.2% and the viability, T/C (compound alone 3 µM) is reported as 84, 97, 92.8, 110, 101, 72.4, 68.8, 106, 84.9, 100%. The viability, T/C (compound alone 9.49 µM) was 93.1, 91.6, 109, 120, 90.2, 81.4, 74.8, 98.6, 107, 97.6%.
